The campaign covered roughly 280,000 compounds. About 1,100 (0.39%) were called active. The shares of active, inactive and inconclusive entries below differ from those in the screen. The call rests on the fitted dose curve; in most records, active means well fitted inhibition curve with a large enough effect; inconclusive means small, poorly fitted or top-dose-only effect, or effect the other way; inactive means flat fitted curve, though single readings scatter. Potencies of inconclusive entries are doubtful fits and often do not repeat.
target: Microtubule-associated protein tau (Homo sapiens) (UniProt P10636); test: qHTS for Inhibitors of Tau Fibril Formation, Fluorescence Polarization; conditions: K18 P301L tau heparin fibrillization, Alexa594 FP, 6 h; series mostly up to 57.7 µM; further: nearly all actives have a fitted effect of over 55% in size
Summary of the method: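 K18 P301L tau (15 uM unlabeled/0.24 uM Alexa 594-labeled, final) + compound + heparin 20 uM final; 100 mM NaOAc pH 7; 6 hr 37 C; ThT 30 uM final added, 1 hr RT; FP ex 555/em 632 nm.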
On the % scale 0 is the no-effect control and ±100 the full control effect; potency means the concentration at half of the fitted maximal effect; tags describe the fitted curve by direction and shape.

Sequence of UniProt P10636 (P10636 whole entry, looked up): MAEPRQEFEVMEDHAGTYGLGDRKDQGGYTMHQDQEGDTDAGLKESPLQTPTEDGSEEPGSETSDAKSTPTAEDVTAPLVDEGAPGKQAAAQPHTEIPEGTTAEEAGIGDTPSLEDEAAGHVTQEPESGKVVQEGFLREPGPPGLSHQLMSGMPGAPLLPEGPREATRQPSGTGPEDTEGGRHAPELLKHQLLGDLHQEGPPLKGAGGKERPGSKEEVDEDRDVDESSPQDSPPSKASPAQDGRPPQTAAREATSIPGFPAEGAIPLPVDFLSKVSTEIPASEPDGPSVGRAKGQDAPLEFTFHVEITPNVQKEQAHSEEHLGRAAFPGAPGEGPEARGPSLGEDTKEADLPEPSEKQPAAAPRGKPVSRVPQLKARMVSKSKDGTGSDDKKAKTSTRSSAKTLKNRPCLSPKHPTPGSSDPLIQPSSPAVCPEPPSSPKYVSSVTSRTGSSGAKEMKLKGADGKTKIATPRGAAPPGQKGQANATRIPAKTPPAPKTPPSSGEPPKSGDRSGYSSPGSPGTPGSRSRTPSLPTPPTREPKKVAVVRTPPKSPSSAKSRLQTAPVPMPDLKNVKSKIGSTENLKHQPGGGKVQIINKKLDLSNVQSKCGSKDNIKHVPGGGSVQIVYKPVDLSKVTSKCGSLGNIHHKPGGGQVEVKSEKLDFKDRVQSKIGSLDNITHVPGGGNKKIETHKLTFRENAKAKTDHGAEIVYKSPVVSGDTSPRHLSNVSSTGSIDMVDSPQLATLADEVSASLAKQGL

Potency, inconclusive:
CC1CCC2C(=O)N(c3ccc(C(=O)Oc4cccc5cccnc45)cc3)C(=O)C2C1 (stereo not drawn) 8.91 µM [inhibitor, partial curve, poor fit]
O=C(Nc1cccc(C(F)(F)F)c1)C1CCN(S(=O)(=O)c2cccs2)CC1 28.2 µM [inhibitor, partial curve, poor fit]
O=C(N/N=C/c1cn(-c2cccs2)nc1-c1ccccc1)c1ccc(O)cc1 17.8 µM [inhibitor, partial curve]
O=c1c2oc3ccccc3c2n(Cc2ccc(Cl)cc2)c(=O)n1Cc1ccccc1 20 µM [inhibitor, partial curve, poor fit]
COc1ccccc1NC(=O)c1ccc(NC(=O)COC(=O)CC(NC(=O)c2ccccc2Cl)c2ccccc2)cc1 (stereo not drawn) 11.2 µM [inhibitor, partial curve]
CC(=O)c1ccc(S(=O)(=O)N2CCC(NC(=O)Nc3cccc(F)c3)CC2)cc1 0.0251 µM [inhibitor, full curve, poor fit]
Cc1ccc(-c2nn(-c3cc(Cl)ccc3[N+](=O)[O-])c(=O)c3ccccc23)cc1 3.16 µM [activator, partial curve]
CCn1c2ccccc2c2cc(NC(=O)C/C(C)=N/NC(=O)c3ccccc3N)ccc21 14.1 µM [activator, partial curve]
Cc1ccc(NC(=O)c2oc3ccccc3c2NC(=O)C23CC4CC(CC(C4)C2)C3)cc1 15.8 µM [inhibitor, partial curve]
O=C1N=c2ccc(Br)cc2=C1c1sc(=S)n(NS(=O)(=O)c2ccccc2)c1O 39.8 µM [inhibitor, partial curve]
CSc1ccc(-c2c(C#N)c(N)nc3c2c(C)nn3-c2ccccc2)cc1 35.5 µM [inhibitor, single point]
Cc1ccc(-n2nc(-c3ccco3)cc2C(=O)NCc2cccnc2)cc1 35.5 µM [inhibitor, single point]
CCOC(=O)N1CCN(C(=O)c2ccccc2NC(=O)c2ccc(C(C)(C)C)cc2)CC1 0.447 µM [inhibitor, partial curve, poor fit]
CCN(CC)S(=O)(=O)c1cccc(C(=O)OCC(=O)c2ccc3c(c2)NC(=O)CO3)c1 20 µM [inhibitor, partial curve]
O=C(COc1ccccc1Br)NCc1ccccn1 39.8 µM [inhibitor, single point]
O=C(CCl)Nc1cc(S(=O)(=O)N2CCCCCC2)ccc1Cl 0.199 µM [activator, full curve, poor fit]
O=S(=O)(c1cccc2c(Cl)cccc12)N1CCCNCC1 0.158 µM [inhibitor, full curve, poor fit]
Cc1ccc(-n2nc(C)c3c(-c4cccs4)c(C#N)c(N)nc32)cc1 39.8 µM [inhibitor, single point]
Cc1ccc(Nc2ncc(C(=O)Nc3ccc(F)cc3F)c3ccccc23)cc1Cl 17.8 µM [inhibitor, partial curve]
COc1ccc(Nc2nc(NCc3ccco3)nc(N3CCOCC3)n2)cc1 15.8 µM [activator, single point]
Cn1nc(-c2ccccc2F)c2cc(C(=O)NCc3cccc(Cl)c3)sc21 3.16 µM [inhibitor, partial curve]
Cc1ccc(C)c(NC(=O)c2nnn(Cc3ccc(F)cc3Cl)c2N)c1 35.5 µM [inhibitor, single point]
CO[C@H]1C[C@@H]2CC[C@@H](C)[C@@](O)(O2)C(=O)C(=O)N2CCCC[C@H]2C(=O)O[C@H]([C@H](C)C[C@@H]2CC[C@@H](O)[C@H](OC)C2)CC(=O)[C@H](C)C=C(C)[C@@H](O)[C@@H](OC)C(=O)[C@H](C)C[C@H](C)C=CC=CC=C1C 39.8 µM [inhibitor, single point]
COc1cc(CNc2ccc(N3CCCC3)cc2)cc(Cl)c1OC 5.62 µM [inhibitor, partial curve]
NNc1nc2ccc(Cl)cc2s1 35.5 µM [inhibitor, single point]
O=S(=O)(Nc1cccc(-c2nc3cccnc3s2)c1)c1cccs1 22.4 µM [inhibitor, single point]
O=c1c2cc(N3CCOCC3)ccc2[nH]c(=S)n1Cc1ccccn1 39.8 µM [inhibitor, single point]
COc1ccc(NC(=O)Cn2c(=O)n(Cc3ccco3)c(=O)c3oc4ccccc4c32)cc1Cl 25.1 µM [inhibitor, partial curve]
Cc1cc(C)c(C#N)c(SCC(=O)N2CCCCC2)n1 8.91 µM [inhibitor, partial curve]
COc1ccc(NC(=O)N2c3ccc(OC)cc3C(C)=CC2(C)C)cc1 17.8 µM [inhibitor, partial curve]
CCCn1c(SCC(=O)c2ccc3c(c2)NC(=O)CO3)nc2ccccc21 0.251 µM [inhibitor, full curve, poor fit]
CCCCCC(=O)Nc1nc(C)c(-c2csc(Nc3ccccc3OC)n2)s1 5.01 µM [activator, partial curve, poor fit]
Nc1nc(Nc2cccc(C(F)(F)F)c2)nc(C(F)(F)F)n1 25.1 µM [inhibitor, partial curve]
CCOc1ccc2nc(N3C(=O)/C(=C/c4ccccc4)NC3=S)sc2c1 14.1 µM [inhibitor, partial curve]
N#Cc1c(C(F)(F)F)cc(-c2cccs2)nc1SCC(=O)Nc1cccc(C(F)(F)F)c1 8.91 µM [inhibitor, partial curve]
COc1ccc2c(c1)-c1nc(/N=C/c3ccccc3O)sc1CC2 39.8 µM [inhibitor, single point]
CC(C)N(C(=S)Nc1cccc(C(F)(F)F)c1)C(C)c1ccccn1 (stereo not drawn) 39.8 µM [inhibitor, single point]
COC(=O)CCCC1=CC2=CC(=O)C(C)(OC(=O)c3cccs3)C(=O)C2=CN1CCc1ccccn1 (stereo not drawn) 15.8 µM [inhibitor, partial curve]
CCOC(=O)C(=O)Nc1ccc(F)cc1 0.794 µM [inhibitor, single point]

Potency, inactive:
Cc1ncc(CO)c2c1Oc1nc(-c3ccccc3Cl)nc(SCc3ccccc3F)c1C2
CC[C@@H]1C(c2ccccc2)=NN(c2ccc(Br)cc2)[C@H]1C(=O)N1CCOC1=O
CCn1cc2nc(SCc3cccc(C(F)(F)F)c3)n(Cc3ccc(OC)cc3)c(=O)c2n1
Cc1cc(Nc2ccccc2Br)n2nc(C)nc2n1
COc1ccc2c(c1)O[C@@H](c1cccc(C(F)(F)F)c1)[C@H](OC(=O)NCc1ccc3c(c1)OCO3)C2=O
O=C(CNC(=O)c1ccccc1)OCc1cc(=O)n2nc(C3CC3)sc2n1
COc1ccc(C(=O)N/N=C/C(C)c2ccccc2)cc1OC (stereo not drawn)
Cc1ccccc1Nc1cc(=O)oc2ccccc12
O=C(NN1C(=O)C2C3C=CC(O3)C2C1=O)c1cccc(O)c1 (stereo not drawn)
N#CCCN(C(=O)CN1C(=O)NC2(CCCC2)C1=O)c1ccccc1F
O=C(/C=C/c1ccc(OCc2cccc(Cl)c2)cc1)N1CCOCC1
CC(C)(C)OC(=O)N1CCC(c2c(C(=O)N3CCN(Cc4ccccc4)CC3)cnn2-c2ccc(Cl)cc2)CC1
Cc1ccc(-c2ccccc2NC(=O)CCl)o1
CCOC(=O)c1nc(N)c(=O)n(-c2ccccc2)n1
Cc1ccc2oc(=O)n(Cc3ccccc3Cl)c2c1
Cc1ccsc1/C=N/NC(=O)CSCc1ccc(Cl)cc1
COc1cc(C(=O)N2CCN(C(=O)c3ccco3)CC2)c([N+](=O)[O-])cc1OC
CCc1nnc(SCC(=O)Nc2cccc(C(F)(F)F)c2)c2cc3oc(C)cc3n12
Cc1ccc(C(c2nnnn2CC2CCCO2)N2CCN(C(=O)c3ccco3)CC2)cc1 (stereo not drawn)
COc1cccc(/C=C/C2=CC(C)(C)NC(=S)N2)c1
CCOc1ccc2c(c1)[N+](C)(C)C(C)(C)C=C2C
COc1ccc(OC)c(CCNC(=O)Cn2nc(C)n3c(cc4sccc43)c2=O)c1
O=C(O)CCN1C(=O)S/C(=C\c2cccnc2)C1=O
COc1ccc(NC2CC(=O)N(c3ccc(C(=O)O)cc3)C2=O)cc1 (stereo not drawn)
COC(=O)C1=C(O)/C(=C\c2ccc(CNS(=O)(=O)c3ccc(Cl)cc3)o2)N=C1C
O=C(Nc1ccc(C(=O)N2CCCC2)cc1)c1ccc2c(c1)OCO2

Potency, active:
CC(=O)Nc1ccc(C(=O)Nc2ccc3c(c2)N(C2CCCC2)C(=O)c2ccccc2S3)cc1 12.6 µM
CCCCOC(=O)c1cccc(NC(=O)/C=C/c2ccccc2Cl)c1 10 µM

activity, negative = inhibition, inactive:
COc1ccc(COC(=O)N/N=C2/C[C@@H](O)[C@@H](O)[C@@H]3[C@@H]4C(=O)N(Cc5ccccc5)C(=O)[C@H]4CC[C@H]23)cc1 -2.61% [at 11.6 µM]

— PubChem BioAssay AID1468 (National Center for Advancing Translational Sciences (NCATS), 2008)
